Test results published in the supplement of paper PMC3334620.
Whole data set: some 33,000 sequences, median “E-score (-0.5 to 0.5)” near -0.012, cut for the highest 2% near 0.27. This is one part of the list.

target: T1, Vhr1 (UniProt P40522); experiment: PBM E-score (8-mer binding enrichment) (E-score (-0.5 to 0.5)); higher = stronger / more preferred TF binding; most listed sequences are background and not binding sites; conditions: protein concentration: 200 nM; construct: GST-full length
T1 sequence: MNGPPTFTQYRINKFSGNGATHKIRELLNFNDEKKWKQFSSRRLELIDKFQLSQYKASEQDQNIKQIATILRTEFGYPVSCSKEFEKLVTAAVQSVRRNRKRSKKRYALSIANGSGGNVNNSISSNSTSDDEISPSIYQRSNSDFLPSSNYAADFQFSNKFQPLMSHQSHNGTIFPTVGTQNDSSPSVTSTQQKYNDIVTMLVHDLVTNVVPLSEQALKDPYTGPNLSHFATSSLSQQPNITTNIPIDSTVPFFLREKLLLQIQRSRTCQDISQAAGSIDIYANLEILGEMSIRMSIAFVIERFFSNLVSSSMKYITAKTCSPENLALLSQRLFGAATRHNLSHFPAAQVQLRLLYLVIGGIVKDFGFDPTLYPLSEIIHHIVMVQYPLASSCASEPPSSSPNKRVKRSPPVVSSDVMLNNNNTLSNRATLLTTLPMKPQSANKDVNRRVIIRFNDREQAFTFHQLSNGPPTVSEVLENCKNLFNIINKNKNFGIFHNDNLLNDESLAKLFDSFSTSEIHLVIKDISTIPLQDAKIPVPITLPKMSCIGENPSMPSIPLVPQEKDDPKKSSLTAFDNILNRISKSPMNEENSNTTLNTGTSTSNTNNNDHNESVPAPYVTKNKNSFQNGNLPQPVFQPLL
Procedure, shortened: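 E-scores (a modified Wilcoxon-Mann-Whitney statistic) were assigned by the Universal PBM Analysis Suite to every ungapped eight-base word pooled with its reverse complement. The input came from universal all-10-mer Agilent arrays made double-stranded by primer extension and probed with GST-tagged yeast transcription factors at about 100-200 nM. Fluorescent anti-GST detected bound protein, and masliner normalised the scans.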

Sequence	PBM E-score
ACTTACTC	0.0187
CTCGAAAG	-0.0953
ACTCCCAA	0.112
CGTTCTAG	-0.0895
CTAGACAG	0.225
ACTAGTAC	0.0895
CAATGACA	0.104
CTACAGCA	-0.025
GAGACCAA	0.114
AATTAAGA	-0.095
GATCTTCA	0.0661
GCCTTTTA	-0.102
ACTAAAAA	-0.127
ACGATGAG	0.22
GTGTGCAA	0.0918
GAGACATA	0.165
CGATCACA	0.162
CCCTAATA	-0.207
GCTGTTGA	-0.01
GCATTCAA	-0.0919
ACCTGGCA	-0.114
ATCTTATG	0.0103
ACTGGGTA	-0.00457
AAATTTCA	-0.322
GTAGACCA	-0.0921

Sequence	PBM E-score
AATATCGT	0.113
TGCTAACA	-0.13
CGTTTCAA	-0.0649
ATTGGATA	0.0484
GATGGCGA	0.019
AGAATACA	0.105
AGGGCAGG	-0.0947
CGGGAGGA	-0.0156
CAGGACAG	-0.0633
ATCAAATC	0.0983
CCGATTAC	-0.0714
AATTGAGA	-0.0698
GAGGCCAA	-0.0163
GGGCACCC	-0.0478
ACCAGTAT	0.0277
TACCACTA	-0.093
AAGAAACA	-0.161
AACGGGGT	-0.0274
GTAAAGAC	-0.133
CACTGAGC	0.0243
GTGAGAAC	-0.113
ATTAATTC	0.0827
AGGGATCA	0.0551
AGCAACCC	-0.112
CCCTCAAA	-0.212

Sequence	PBM E-score
TAGCCGCA	0.00034
GTCATGGA	0.136
CGGAAACC	-0.124
ACAAATGC	-0.0549
AGAAAACA	-0.196
AAAGGACA	-0.0488
CTCCAATA	-0.0124
CAATTAGG	-0.011
ACAAAGGA	-0.00459
ATCGGCCG	0.0135
CACCTATA	-0.00283
AGACGTCG	-0.0466
GACGGTAA	-0.279
GCCCTGAC	0.0126
TACACTGA	0.26
GAAGCGAA	-0.176
ATGATTAA	0.264
TCACACGA	0.201
ACAGACTG	0.0688
ACATTCGT	-0.0276
AGTATCGG	-0.101
ACCTGCGC	-0.077
AGGGACGC	-0.144
AGGCATCG	-0.22
AACGAGAT	-0.00314

Sequence	PBM E-score
AGGCCCTC	-0.112
CCAAGTAC	-0.133
AGAACGTC	-0.0281
GATTCTCA	0.078
CAGCCTTC	-0.126
GTACTGGA	0.166
ACGTTGGA	0.0766
AGTCCCGC	-0.0151
GAACGTAA	-0.117
CCCTAACA	-0.0438
AAGCTGTC	-0.135
GAGTCTGC	-0.0315
CATCGTTA	-0.045
GACCTCAC	0.0743
TCCCAGCA	0.0646
CATTGTGG	0.209
ATTCATTA	0.195
CGGTATAA	-0.113
AACAGATT	-0.157
CGGGTTTC	-0.0806
AAGCCGTG	-0.169
AGGCCTAC	0.0465
ATATCCTG	0.0294
CGGTTAAC	-0.00424
GGCTTACC	-0.116

Sequence	PBM E-score
AAAACACT	-0.0304
CTTCACTC	0.101
CGTTAAGC	-0.00068
AAAACGCC	-0.0219
GAGGGCCA	-0.0438
CTGTTGCA	0.121
AGACTGGC	-0.213
GCTATCTA	-0.0425
ACCTCTTC	0.0109
AAAGTTTA	-0.176
TAATTACA	-0.0388
CGGGCGCA	0.0279
GATGAAAC	-0.0135
CAGAAACG	0.00094
GCGTCACC	-0.234
CTGAAATA	0.00206
AACCTTCC	-0.211
ATCGAAAA	-0.11
ATCCAAAA	-0.132
GCTTCAGA	-0.132
CCATAAGA	-0.0689
CTCATGAG	0.0895
GAACTAGC	-0.118
AAGGCCTG	-0.249
AGCGGGGC	-0.123

Sequence	PBM E-score
AGCGAATG	-0.0751
ACCATACG	0.0923
GGTTTACA	-0.0121
AAACATGC	0.0612
AGTAACGC	0.00153
ATTAGCTG	0.0563
AATCGGGT	0.119
ACAACACC	0.0441
CTTAAAAC	-0.173
CATTAAAG	-0.125
CGCCGGCG	0.237
CGCTAGAC	-0.253
ACATAGGC	-0.122
CCGATGTA	0.0807
CTTCTACC	-0.103
ATAGCCAC	0.113
TATAGAAA	-0.163
AAAGTACC	-0.136
AGACCGTC	-0.136
CCTCCGCG	0.065
GTTCGCAA	0.00099
AATATCAG	-0.0255
ACTATAGT	0.173
CTGCGGGC	0.0044
CTGCGGCC	0.00322

Sequence	PBM E-score
GAAGTACC	-0.13
GTCTCGCA	-0.00955
GGCCCCCC	-0.143
GAAATAGA	-0.00777
CAGTCGTA	0.132
AAATTTCG	-0.24
AGCAGCCT	-0.0896
CCGTAAAA	-0.0726
GGGTAAAA	-0.0529
GACGGAAA	0.0178
CTTGCCCA	-0.177
AGTCAGTG	0.375
AGGAAACC	-0.148
ACACGGGG	0.162
CACCAACG	0.116
AAAGCTAC	-0.113
CTCCTCTA	-0.189
TCGTCTCA	-0.129
GCATTCGA	0.0505
CCCCCGCG	0.0616
CAGCAAAA	0.0669
CTCTTACC	-0.0367
AACGTTTC	-0.246
CAGTAAAG	-0.0186
GGACGACA	0.203

Sequence	PBM E-score
CGCAGAAA	-0.268
GGTAGTGA	0.159
AATGAGAG	-0.17
AACACTGT	0.0656
ATTGGCCC	-0.193
CCGCGGAC	0.121
AACTTAAA	-0.221
ATACTACA	0.258
CACCAGCG	0.163
GTGGATTA	-0.0316
AGCAGGAC	0.119
CACTCAGA	0.12
AAACTGAG	-0.123
AACGATCA	-0.0499
CAGTTAGC	-0.178
GTGGCCGA	-0.124
AAACTCGT	-0.0145
CCCTTCAA	-0.206
ACTCGAGC	0.0233
TAGGAGAA	-0.139
AAATCGGT	-0.194
AGTATTTC	0.0255
GATTCTCC	0.142
TATGTGGA	0.123
ATGACCGG	-0.132

Sequence	PBM E-score
CCCCTGAC	0.192
CAGTGGTA	-0.0246
CCCCGAAC	-0.0793
AAGACAGT	0.0669
AGTAGAAG	-0.159
ACAGGGGC	0.0421
ACTAGGAT	-0.114
CCCGTACC	0.0244
GCACCCAC	0.211
AATCTGGG	-0.076
ATAAGCGG	0.0189
AAGGGGAA	-0.312
AGCTAGGA	0.117
AACAGACT	0.0598
CCTGTCGA	-0.12
CTGGTAAC	0.0684
ACCATCCC	0.054
CTTCCCTA	-0.379
ACTCCAAA	0.0882
